According to PubChem BioAssay (Tox21):
Where “and” joins values, the source holds several entries; their conditions need not be identical. Equal values may be shown once. The shares of active, inactive and inconclusive entries below differ from those in the screen. For part of these data: A potency beside an inconclusive call is a rough fit, not a confirmed value. Where a structure was tested more than once in an assay, its records may differ in their call. Calls of active or inactive are those of the source. Unless noted, calls come from the whole dose curve; as a rule, active = well fitted curve in the direction sought with a large enough effect in the repeat runs; inconclusive = weak or mixed curves; inactive = no such curve, though single readings can be large; an effect the other way counts as inactive or inconclusive.

Key:
[1] = qHTS assay to identify small molecule antagonists of the retinoid acid receptor (RAR) signaling pathway - cell viability counter screen (AID 1159551); settings: C3RL4 cells viability, ATP luminescence (CellTiter-Glo), 6 h; series mostly up to 92.4 µM; note: potency is the fitted concentration of half-maximal effect; nearly all actives have a fitted effect of over 35% in size
How it was run: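 C3RL4 cells were seeded overnight at 37 C, then treated with compounds plus 1 uM (final) retinol for 6 h at 37 C. Viability was read as ATP by CellTiter-Glo luminescence after 30 min at room temperature.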

[2] = qHTS assay to identify small molecule antagonists of the retinoic acid receptor (RAR) signaling pathway (AID 1159552; note: potency is the fitted concentration of half-maximal effect; nearly all actives have a fitted effect of over 50% in size); settings: C3RL4 RARE luciferase reporter, retinol-stimulated, 6 h; series mostly up to 92.4 µM
How it was run: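 Antagonism of retinol-induced RARE reporter activity was measured in C3RL4 cells. Exposure to compounds and 1 uM final retinol lasted 6 hr at 37 C, with luminescence as endpoint.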

[3] = qHTS assay to identify small molecule agonists of the retinoic acid receptor (RAR) signaling pathway (AID 1159553); settings: C3RL4 RARE luciferase reporter, agonist, 6 h; activation: at 73.3 µM (top of the series) unless noted; note: potency is the fitted concentration of half-maximal effect
How it was run: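 C3RL4 cells carrying a RARE luciferase reporter were plated overnight at 37 C, then exposed to compounds in DMSO for 6 hr at 37 C and 5% CO2. Luminescence was read 30 min after luciferase reagent addition at room temperature.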

[4] = qHTS assay to identify small molecule antagonists of the estrogen related receptor (ERR) signaling pathway from Tox21 library - cell viability counter screen (AID 1224834); settings: ERR reporter cells viability, CellTiter-Fluor, 17.5 h; series mostly up to 92.4 µM; note: potency is the fitted concentration of half-maximal effect; nearly all actives have a fitted effect of over 30% in size
How it was run: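 ERR reporter cells were plated 6 h before compound addition, then exposed to test compounds in DMSO for 17.5 h at 37 C. Viability was read as CellTiter-Fluor fluorescence after a 30-minute incubation at 37 C.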

[5] = qHTS assay to identify small molecule agonists of the constitutive androstane receptor (CAR) signaling pathway - cell viability counter screen (AID 1224836); settings: HepG2-CYP2B6-hCAR viability, CellTiter-Fluor, 23 h, PK11195 added to every well; series mostly up to 92.4 µM; note: potency is the fitted concentration of half-maximal effect; nearly all actives have a fitted effect of over 45% in size
How it was run: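 Double-stable HepG2 hepatoma cells (hCAR plus CYP2B6-2.2kb) are treated for 23 h at 37 C with test compounds in 15-point concentration series. PK11195 at 0.75 uM final is co-added. Cell viability is quantified by CellTiter-Fluor.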

[6] = molecular target: Nuclear receptor subfamily 1 group I member 3 (Homo sapiens) (UniProt Q14994); assay: qHTS assay to identify small molecule antagonists of the constitutive androstane receptor (CAR) signaling pathway (AID 1224838); settings: HepG2-CYP2B6-hCAR luciferase, CITCO-stimulated, 24 h; series mostly up to 92.4 µM; note: potency is the fitted concentration of half-maximal effect; nearly all actives have a fitted effect of over 40% in size
Sequence of UniProt Q14994 (Q14994 whole entry, looked up): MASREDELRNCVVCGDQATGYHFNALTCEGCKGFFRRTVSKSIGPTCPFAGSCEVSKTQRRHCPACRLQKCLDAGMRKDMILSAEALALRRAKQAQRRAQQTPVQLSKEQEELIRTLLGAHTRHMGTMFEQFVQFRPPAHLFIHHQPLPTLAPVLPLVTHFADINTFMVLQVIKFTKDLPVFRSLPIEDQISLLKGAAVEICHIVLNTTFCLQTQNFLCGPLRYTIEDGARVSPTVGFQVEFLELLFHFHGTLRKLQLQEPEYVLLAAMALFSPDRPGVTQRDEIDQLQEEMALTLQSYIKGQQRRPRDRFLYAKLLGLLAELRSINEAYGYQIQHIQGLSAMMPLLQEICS
How it was run: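 HepG2 cells stably co-transfected with hCAR and a CYP2B6-2.2kb luciferase reporter were seeded 4 h before compound addition at 15 concentrations. Cells were stimulated with 50 nM CITCO (final) for 24 h at 37 C; luciferase luminescence was then read.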

[7] = molecular target: Thyrotropin receptor (Homo sapiens) (UniProt P16473); assay: qHTS assay to identify small molecule agonists of the thyroid stimulating hormone receptor (TSHR) signaling pathway (AID 1224843; calls by dose curve; note: nearly all actives have a fitted effect of over 45% in size; note: potency is the fitted concentration of half-maximal effect; for activation: % is set by controls: 0 for no effect and ±100 for the full control effect); settings: TSHR-HEK293 cells, cAMP HTRF, agonist mode, 30 min; activation: at 92.4 µM (top of the series) unless noted
Sequence of UniProt P16473 (P16473 whole entry, looked up): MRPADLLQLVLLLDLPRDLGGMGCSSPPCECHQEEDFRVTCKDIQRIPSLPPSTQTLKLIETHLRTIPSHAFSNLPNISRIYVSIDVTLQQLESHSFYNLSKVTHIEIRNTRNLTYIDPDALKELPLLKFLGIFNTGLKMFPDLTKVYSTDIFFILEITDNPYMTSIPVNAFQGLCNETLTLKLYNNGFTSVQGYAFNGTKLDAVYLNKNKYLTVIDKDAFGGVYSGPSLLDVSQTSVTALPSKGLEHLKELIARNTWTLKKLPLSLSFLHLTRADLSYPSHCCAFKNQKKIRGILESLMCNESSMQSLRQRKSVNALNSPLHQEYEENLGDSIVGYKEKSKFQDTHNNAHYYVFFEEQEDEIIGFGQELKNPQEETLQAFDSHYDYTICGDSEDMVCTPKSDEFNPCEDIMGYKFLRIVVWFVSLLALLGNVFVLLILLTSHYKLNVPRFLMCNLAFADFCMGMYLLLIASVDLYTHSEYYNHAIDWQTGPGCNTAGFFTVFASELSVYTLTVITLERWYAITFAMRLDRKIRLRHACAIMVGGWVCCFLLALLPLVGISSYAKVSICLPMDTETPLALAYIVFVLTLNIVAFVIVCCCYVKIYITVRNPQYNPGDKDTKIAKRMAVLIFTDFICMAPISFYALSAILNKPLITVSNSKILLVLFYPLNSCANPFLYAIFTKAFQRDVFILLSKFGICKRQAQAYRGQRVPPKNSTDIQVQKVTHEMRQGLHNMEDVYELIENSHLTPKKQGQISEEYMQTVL
How it was run: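 TSHR-HEK293 cells in agonist mode, 30 min room-temperature step, then cAMP measured by competitive HTRF (cAMP-d2 with anti-cAMP cryptate) after 1 h at room temperature. Tested at 15 concentrations in triplicate.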

[8] = qHTS assay to identify small molecule agonists of the hypoxia (HIF-1) signaling pathway - cell viability counter screen (AID 1224844; calls by dose curve; note: potency is the fitted concentration of half-maximal effect; nearly all actives have a fitted effect of over 50% in size); settings: HRE-bla ME-180 viability, CellTiter-Glo luminescence, 17 h; series mostly up to 76.8 µM
How it was run: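 HRE-bla ME-180 cells in medium with 0.5% dialyzed FBS were preincubated 5 hrs at 37C, exposed to compounds for 17 hrs, then viability was read as CellTiter-Glo luminescence after 30 min at room temperature, in the reporter wells.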

[9] = qHTS assay to identify small molecule antagonists of the constitutive androstane receptor (CAR) signaling pathway - cell viability counter screen (AID 1224837); settings: HepG2-CYP2B6-hCAR viability, CellTiter-Fluor, 23 h, co-treated with 50 nM CITCO; series mostly up to 92.4 µM; note: potency is the fitted concentration of half-maximal effect; nearly all actives have a fitted effect of over 45% in size
How it was run: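 HepG2 cells stably expressing hCAR and a CYP2B6-2.2kb reporter were plated and pre-incubated 4 hr at 37 C/5% CO2, then given compounds at 15 concentrations plus 50 nM CITCO (final). After 23 hr, viability was read by CellTiter-Fluor fluorescence.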

[10] = qHTS assay to identify small molecule antagonists of the estrogen related receptor signaling pathway with the pleiotropic PPARgamma coactivator (PGC) from Tox21 10K library - cell viability counter screen (AID 1224840; active = well fitted cell-killing curve with a large enough effect in the repeat runs, not every such curve was filed as active; inconclusive = weak or mixed curves, or effect the other way; inactive = no such curve, though single readings can be large or run the other way; note: potency is the fitted concentration of half-maximal effect; nearly all actives have a fitted effect of over 40% in size); settings: PGC/ERR reporter cells viability, CellTiter-Fluor, 17.5 h; series mostly up to 92.4 µM
How it was run: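 PGC/ERR cells were seeded at 2,000 cells/well and left 6 hours at 37 C/5% CO2 before pin-tool addition of compounds in DMSO. After 17.5 hours at 37 C, CellTiter-Fluor was added and fluorescence read 30 minutes later.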

[11] = qHTS assay to identify small molecule antagonists of the estrogen related receptor (ERR) signaling pathway - cell viability counter screen (AID 1224818); settings: ERR reporter cell line viability counter screen; series mostly up to 92.2 µM;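 note: potency is the fitted concentration of half-maximal effect; viability measured after 17.5 h of compound exposure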
How it was run: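 ERR reporter cells plated 6 h at 37 C/5% CO2, then compounds in DMSO pin-transferred and incubated 17.5 h at 37 C. Viability read as CellTiter-Fluor fluorescence after 30 min at 37 C.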

[12] = qHTS assay to identify small molecule antagonists of the estrogen related receptor (ERR) signaling pathway (AID 1224819; note: potency is the fitted concentration of half-maximal effect; nearly all actives have a fitted effect of over 50% in size); settings: ERR reporter cell line, luciferase inhibition; series mostly up to 46.1 µM
How it was run: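 ERR reporter cells were plated at 2,000 cells/well and left 6 h at 37 C/5% CO2 before pin-tool transfer of compounds in DMSO. After 18 h at 37 C, One-Glo was added and luminescence was read 30 min later at room temperature.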

[13] = qHTS assay to identify small molecule antagonists of the estrogen related receptor signaling pathway with the pleiotropic PPARgamma coactivator (PGC) cell viability counter screen (AID 1224822; note: potency is the fitted concentration of half-maximal effect); settings: ERR/PGC reporter cell line viability counter screen; series mostly up to 46.1 µM
How it was run: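 PGC/ERR cells were seeded at 2,000 cells/well, rested 6 h at 37 C/5% CO2, then given compounds in DMSO by pin tool and incubated 17.5 h at 37 C. Viability came from CellTiter-Fluor fluorescence after 30 min.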

[14] = molecular target: Nuclear receptor subfamily 1 group I member 3 (Homo sapiens) (UniProt Q14994); assay: qHTS assay to identify small molecule agonists of the constitutive androstane receptor (CAR) signaling pathway (AID 1224839); settings: HepG2 hCAR CYP2B6-luciferase, agonist mode, 24 h; series mostly up to 92.4 µM;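 note: HepG2 cells stably carrying human CAR and a CYP2B6 luciferase reporter; % is set by controls: 0 for no effect and ±100 for the full control effect; nearly all actives have a fitted effect of over 15% in size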
How it was run: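 Readout: firefly luciferase luminescence via ONE-Glo. System: HepG2 double-stable for hCAR and CYP2B6-2.2kb. Conditions: 15-point compound titration, PK11195 at 0.75 uM final, 24 h incubation.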

[15] = qHTS assay to identify small molecule agonists of the estrogen related receptor (ERR) signaling pathway (AID 1224820); settings: ERR reporter cell line, luciferase agonist mode; at 46.1 µM (top of the series); note: % is set by controls: 0 for no effect and ±100 for the full control effect
How it was run: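 ERR reporter cell line (from NTP), 2,000 cells/well, incubated 6 h before compound addition, then 18 h at 37 C. Luminescence measured 30 min after One-Glo reagent at room temperature.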

[16] = qHTS assay to identify small molecule antagonists of the estrogen related receptor signaling pathway with the pleiotropic PPARgamma coactivator (PGC) from Tox21 10K library (AID 1224841; call rule not given here; note: potency is the fitted concentration of half-maximal effect; actives are mostly falling curves and most rising ones were filed inactive; nearly all actives have a fitted effect of over 50% in size); settings: PGC/ERR reporter cell line, ONE-Glo luciferase, 18 h; series mostly up to 92.4 µM
How it was run: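 PGC/ERR reporter cells were seeded at 2,000 cells/well and held 6 hours at 37 C/5% CO2 before pin-tool addition of compounds in DMSO. After 18 hours at 37 C, One-Glo was added and luminescence read after 30 minutes at room temperature.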
Tags give direction and shape of the fitted curve or compound fluorescence and quenching.

Q: Which results are given for CC(C)(C)NC(=O)[C@@H]1C[C@@H]2CCCC[C@@H]2CN1C[C@@H](O)[C@H](Cc1ccccc1)NC(=O)[C@H](CC(N)=O)NC(=O)c1ccc2ccccc2n1?
A: Potency [1]: inconclusive: 69.5 µM [cytotoxic, single point]; Potency [2]: active: 55.2 µM; Potency [3]: inconclusive: 55.2 µM [inhibitor, partial curve]; Potency [4]: active: 24.7 µM; Potency [5]: active: 31 µM; Potency [6]: inconclusive: 78 µM [inhibitor, single point]; Potency [7]: active: 27.7 µM; Potency [8]: active: 55.7 µM

Q: With Oc1cc2ccccc2c2ccccc12 as the compound, how does the Potency [1] read?
A: Its Potency is active: 27.3 µM.

Q: And the Potency [3]?
A: The Potency was inconclusive: 13.7 µM [inhibitor, full curve].

Q: What does the source list for O=C1C=CC(=O)N1c1ccc(Cc2ccc(N3C(=O)C=CC3=O)cc2)cc1?
A: Potency [1]: active: 61.1 µM; Potency [2]: active: 13.7 µM; Potency [3]: inconclusive: 54.5 µM [inhibitor, partial curve]; Potency [9]: inconclusive: 27.3 µM [cytotoxic, partial curve]; Potency [7]: inconclusive: 6.86 µM [activator, partial curve]

Q: What does the source list for O=c1[nH]sc2ccccc12?
A: Potency [1]: inconclusive: 38.6 µM [cytotoxic, partial curve]; Potency [2]: active: 17.2 µM; Potency [3]: inconclusive: 9.69 µM [inhibitor, full curve]; Potency [9]: active: 27.3 µM; activation [7]: inconclusive: -66.1%

Q: Which results are given for CCCCCCCCCCCCCCCCCCNC(=O)OC1CCN(C(=O)OC[C@H](COC(=O)N(Cc2cccc[n+]2CC)C(=O)c2ccccc2OC)OC)CC1?
A: Potency [1]: inconclusive: 33.5 µM [cytotoxic, single point]; Potency [2]: active: 26.6 µM; Potency [9]: inconclusive: 29.8 µM [cytotoxic, partial curve, poor fit]; Potency [10]: inconclusive: 29.8 µM [cytotoxic, partial curve]; activation [7]: inconclusive: -29.1% [at 42.5 µM]; Potency [8]: inconclusive: 23.9 µM [cytotoxic]

Q: For CSc1ccc2c(c1)N(CCC1CCCCN1C)c1ccccc1S2 (stereo not given), which Potency [1] is on record?
A: The Potency was active: 60.9 µM and inconclusive: 33.5 µM [cytotoxic, single point].

Q: What about the Potency [2] of the same compound?
A: Its Potency is active: 24.2 µM and active: 29.8 µM.

Q: What about the Potency [3] of the same compound?
A: Its Potency is inconclusive: 24.2 µM [inhibitor, partial curve] and inconclusive: 26.6 µM [inhibitor, partial curve].

Q: And the Potency [11]?
A: Its Potency is inconclusive: 28.7 µM [cytotoxic].

Q: What about the Potency [12] of the same compound?
A: Its Potency is inconclusive: 32.2 µM [inhibitor].

Q: And the Potency [13]?
A: The Potency was inconclusive: 28.7 µM [cytotoxic].

Q: And the Potency [5]?
A: The Potency was inconclusive: 33.5 µM [cytotoxic, partial curve, poor fit].

Q: What about the Potency [9] of the same compound?
A: The Potency was active: 54.3 µM and inconclusive: 33.5 µM [cytotoxic, partial curve, poor fit].

Q: And the Potency [6]?
A: The Potency was inconclusive: 68.3 µM [inhibitor, single point].

Q: What about the Potency [14] of the same compound?
A: The Potency was “inactive”.

Q: Which Potency [1] does the source give for CCCCCCOc1cc(C)c(O)c(C)c1C here?
A: The Potency was inconclusive: 61.9 µM [cytotoxic, single point].

Q: What about the Potency [2] of the same compound?
A: The Potency was inconclusive: 69.4 µM [inhibitor, single point].

Q: And the Potency [3]?
A: Its Potency is inconclusive: 61.9 µM [inhibitor, partial curve, poor fit].

Q: And the Potency [7]?
A: Its Potency is inconclusive: 12.3 µM [inhibitor, partial curve].

Q: And the Potency [8]?
A: The Potency was inconclusive: 55.6 µM [cytotoxic].

Q: Which results are given for O=C1NCN(c2ccccc2)C12CCN(CCCC(c1ccc(F)cc1)c1ccc(F)cc1)CC2?
A: Potency [1]: inconclusive: 33.5 µM [cytotoxic, single point]; Potency [2]: active: 29.8 µM; Potency [3]: inconclusive: 29.8 µM [inhibitor, partial curve]; Potency [11]: inconclusive: 20.3 µM [cytotoxic]; Potency [12]: active: 23.7 µM; activation [15]: inactive: -93.9%; Potency [13]: active: 22.8 µM; Potency [10]: inconclusive: 29.8 µM [cytotoxic, partial curve]; Potency [16]: inconclusive: 33.5 µM [falling, partial curve, poor fit]; Potency [8]: active: 10.7 µM

Q: With CC1=CC(=O)c2ccccc2C1=O as the compound, how does the Potency [1] read?
A: Its Potency is active: 27.3 µM and inconclusive: 33.5 µM [cytotoxic, single point].

Q: And the Potency [2]?
A: Its Potency is inconclusive: 33.5 µM [inhibitor, single point].

Q: And the Potency [3]?
A: The Potency was inconclusive: 77 µM [inhibitor, single point].

Q: And the Potency [4]?
A: The Potency was active: 61.1 µM.

Q: And the Potency [5]?
A: Its Potency is inconclusive: 27.3 µM [cytotoxic, single point] and inconclusive: 33.5 µM [cytotoxic, single point].

Q: And the Potency [9]?
A: The Potency was inconclusive: 27.3 µM [cytotoxic, single point] and inconclusive: 33.5 µM [cytotoxic, single point].

Q: What about the Potency [6] of the same compound?
A: Its Potency is inconclusive: 37.6 µM [inhibitor, single point].

Q: What about the Potency [10] of the same compound?
A: Its Potency is inconclusive: 43.3 µM [cytotoxic, partial curve].

Q: What about the Potency [8] of the same compound?
A: Its Potency is active: 21.9 µM.
